# Measurements: the supplement of paper PMC11283458
# This is one part of the list. Most values come without repeats; read them as rough.
# How the values were obtained:
# [1] = test system: Mef2d microexon dual Nano/Firefly luciferase splicing reporter in Neuro-2a cells; test: B-score of Firefly/Nano luminescence ratio, V1 Mef2d microexon reporter (B-score (plate-normalised)); higher = more Mef2d microexon inclusion; conditions: 24 h
# [2] = test system: Mef2d microexon dual Nano/Firefly luciferase splicing reporter in Neuro-2a cells; test: B-score of Nano/Firefly luminescence ratio, V2 Mef2d microexon reporter (B-score (plate-normalised)); higher = more Mef2d microexon inclusion; conditions: 24 h
# 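Wherever B-score of Nano/Firefly luminescence ratio, V2 Mef2d microexon reporter is given: compounds at 4 µM (PKI library 0.5 µM) on Dox-inducible N2A Flp-In cells with PEST-tagged luciferases, 384-well plates, B-score from per-plate median-polish residual over median absolute residual.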
Structure (SMILES),B-score [1],B-score [2]
O=C(C=Cc1cc([N+](=O)[O-])ccc1Sc1ccc(C(F)(F)F)cn1)Nc1ccccc1 (4 µM),0.824,4.52
Cc1cc(N2CCC(C)CC2)c([N+](=O)[O-])cc1[N+](=O)[O-] (4 µM),4.05,4.18
C/C(=C/C(=O)NCc1ccc(F)cc1)NCc1ccc(F)cc1 (4 µM),18,-0.596
Cc1ccc(C(=O)CSc2nc3cc(C(F)(F)F)ccc3n2C(C)C)cc1 (4 µM),3.29,2.89
CCOC(=O)c1sc(S(C)=O)c2c1CC(c1ccccc1)CC2=O (configuration not stated) (4 µM),8.26,6.69
COc1ccc(-c2ccc3c(N4CCOC[C@@H]4C)nc(N4CCOC[C@@H]4C)nc3n2)cc1CO (0.5 µM),-7.5,-6.28
CCn1ncc(C2=NOC(C(=O)NCc3ccc(Cl)cc3)C2)c1C (configuration not stated) (4 µM),-2.79,-7.27
O=C(OCCN1CCCCC1)c1c[nH]c2ccccc12 (4 µM),-6.04,-6.07
COC(=O)Nc1nc2cc(Sc3ccccc3)ccc2[nH]1 [Fenbendazole] (4 µM),-2.15,-22.6
CC(=O)O[C@H]1C(=O)[C@@]2(C)[C@H]([C@H](OC(=O)c3ccccc3)[C@]3(O)C[C@H](OC(=O)[C@H](O)[C@@H](NC(=O)c4ccccc4)c4ccccc4)C(C)=C1C3(C)C)[C@]1(OC(C)=O)CO[C@@H]1C[C@@H]2O [Taxol] (4 µM),-3.6,-11.9
Cn1ncc(C(=O)Nc2ccc(Cl)c(Cl)c2)c1[N+](=O)[O-] (4 µM),10.4,0.809
COc1cccn(CC(=O)NNS(=O)(=O)c2ccccc2)c1=O (4 µM),1.01,6.31
Oc1cc(-c2ccccc2)nc2ccccc12 (4 µM),-4.36,-9.62
CNC(=S)N/N=C/c1cc(Br)ccc1O (4 µM),3.97,5.12
COC(=O)c1cc(OC)c(OC)cc1NS(=O)(=O)c1ccc(OC)cc1 (4 µM),-6.02,-6.7
CS(=O)(=O)c1ccc(C(F)(F)F)cc1[N+](=O)[O-] (4 µM),-1.9,-5.34
O=C(CC1NCCN(Cc2ccccc2)C1=O)Nc1ccccc1 (configuration not stated) (4 µM),-1.43,-8.24
COc1cc(C(=O)ON=C(N)c2ccc3c(c2)OCO3)cc(OC)c1OC (4 µM),5.7,2.69
O=C1Nc2ccc(Br)cc2C1=CC(=O)c1ccc(Br)cc1 (4 µM),3.54,7.65
CC1(C)CC(Nc2ccc(Nc3ccccc3)cc2)CC(C)(C)N1 (4 µM),5.59,1.25
Cc1onc(-c2ccccc2)c1C(=O)Nc1c(C(C)(C)C)nn(C)c1C(C)(C)C (4 µM),7.28,3.45
COc1ccc(-c2ccc3ncc4c(c3c2)n(-c2ccc(N3CCNCC3)c(C(F)(F)F)c2)c(=O)n4C)cn1 (0.5 µM),-16.4,-10.2
Cc1cccc(N2CCN(C(=O)c3c(-c4ccccc4)noc3C)CC2)c1C (4 µM),-6.52,-9.52

Structure (SMILES),B-score [1],B-score [2]
Cc1ccc(C(=O)Nc2ccc(CN3CCN(C)CC3)c(C(F)(F)F)c2)cc1C#Cc1cnc2cccnn12 (0.5 µM),5.67,8.2
Cc1cc(Sc2nnc(N=CN(C)C)s2)c2ccccc2n1 (4 µM),-2.12,-11
COc1ccc(/C(C#N)=C/c2ccc3c(c2)OCO3)cc1OC (4 µM),-2.4,-9.47
COC(=O)c1ccccc1NC(=O)Cc1coc2cc(C)cc(C)c12 (4 µM),-9.25,-10
Cc1onc(-c2c(F)cccc2Cl)c1C(N)=NOC(=O)c1c(-c2c(Cl)cccc2Cl)noc1C (4 µM),3.92,2.93
Nc1ncn([C@@H]2O[C@H](CO)[C@@H](O)[C@H]2O)c(=O)n1 [5-azacytidine] (4 µM),-4.68,-9.01
COc1c(Br)cc([N+](=O)[O-])c(OC)c1C(=O)NC(=O)Nc1cc(C(F)(F)F)cc(C(F)(F)F)c1 (4 µM),-4.72,-3.48
NC(=NOC(=O)c1c(F)cccc1Cl)c1ccc([N+](=O)[O-])o1 (4 µM),3.37,2.46
Cc1onc(-c2c(Cl)cccc2Cl)c1C(=O)ON=C(N)Cc1ccc(C(C)(C)C)cc1 (4 µM),4.82,2.24
O=[N+]([O-])c1ccc(Sc2ssc(=S)c2-c2ccccc2)nc1 (4 µM),-6.01,-12.9
COc1cc(Br)c(-c2cc3cc(Cl)ccc3oc2=O)cc1OC (4 µM),-9.92,-4.82
COc1ccc(OC)c(NCc2c(OC)ccc3ccccc23)c1 (4 µM),-10.5,-11.1
COC(=O)c1cnc(NC(=O)C2CCN(c3ncnc4sc(C)c(C)c34)CC2)s1 (4 µM),-14.3,-13.7
CONC1CCCCC1NOC.Cl.Cl (configuration not stated) (4 µM),-13.4,-0.208
CC(=O)N[C@H]1[C@H](O[C@H]2CC[C@@]3(C)C(CC[C@]4(C)C3CC=C3C5CC(C)(C)C[C@@H](C(=O)O)C5CC[C@]34C)C2(C)C)O[C@H](CO)[C@@H](O)[C@@H]1O (some centres not stated) (4 µM),7.19,11.6
COc1ccc2oc(C(=O)N(C)Cc3cnn(Cc4ccccc4)c3)c(C)c2c1 (4 µM),-2.43,-5.74
CCc1cc2c(cc1N1CCC(N3CCOCC3)CC1)C(C)(C)c1[nH]c3cc(C#N)ccc3c1C2=O (0.5 µM),-4.29,-4.69
O=C(C=c1[nH]c(=O)c(=Cc2ccccc2O)s1)c1cccs1 (4 µM),-11.5,-16.6
Cc1cccc(N2CC(C(=O)Nc3ccc(Cl)cn3)CC2=O)c1C (configuration not stated) (4 µM),-4.77,-10.8
Cc1nn(Cc2cccc(C(=O)ON=C(N)c3ccc(Cl)cc3)c2)c(C)c1Br (4 µM),9.93,6.98
Cc1ccc(Oc2c([N+](=O)[O-])cc(C(F)(F)F)cc2[N+](=O)[O-])c(C)c1 (4 µM),8.26,1.78
COc1cc2nccc(Oc3ccc(NC(=O)Nc4ccc(F)cc4F)c(F)c3)c2cc1OC (0.5 µM),4.95,8.1
Nc1ncnc2c1c(-c1cccc(OCc3ccccc3)c1)cn2C1CC(CN2CCC2)C1 (configuration not stated) (0.5 µM),16.4,5
